According to PubChem BioAssay (Tox21):
Where “and” joins values, the source holds several entries; their conditions need not be identical. Equal entries are not always repeated. The shares of active, inactive and inconclusive entries below differ from those in the screen. A potency beside an inconclusive call is a rough fit, not a confirmed value. Calls of active or inactive are those of the source. Calls follow the shape of the dose curve; as a rule, active = well fitted curve in the direction sought with a large enough effect in the repeat runs; inconclusive = weak or mixed curves; inactive = no such curve, though single readings can be large; an effect the other way counts as inactive or inconclusive.

test system: not listed separately; test: qHTS assay to identify small molecule antagonists of the constitutive androstane receptor (CAR) signaling pathway - cell viability counter screen (AID 1224837); settings: HepG2-CYP2B6-hCAR viability, CellTiter-Fluor, 23 h, co-treated with 50 nM CITCO; series mostly up to 92.4 µM; activity change, negative = cytotoxicity: at the top concentration; also: nearly all actives have a fitted effect of over 45% in size; as to activity change, negative = cytotoxicity: % is scaled to controls: 0 for no effect and ±100 for the full control effect
Summary of the method: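 Viability was measured with CellTiter-Fluor in a HepG2 line carrying stably transfected hCAR and a CYP2B6-2.2kb construct. Cells were exposed for 23 hr at 37 C to 15 compound concentrations with 50 nM CITCO as agonist.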
Potency is read from the fitted curve at half-maximal effect; tags tell the direction and shape of the fitted curve.

Structure (SMILES) | Potency | activity change, negative = cytotoxicity
CCCCCCCCCCCCOC(=O)c1cc(O)c(O)c(O)c1 | active: 68.3 µM and inconclusive: 61.1 µM [cytotoxic, partial curve] | –
CCCCCCCCCCCCc1ccc(O)cc1 | inconclusive: 68.6 µM [cytotoxic, single point] | –
C[C@]12CC[C@@H]3c4ccc(O)cc4CC[C@H]3[C@@H]1CC[C@@H]2OC(=O)CCC1CCCC1 | inconclusive: 68.6 µM [cytotoxic] | –
CCC(C)(C)c1ccc(CC(C)CN2C[C@@H](C)O[C@@H](C)C2)cc1 (stereo partly specified) | – | inactive: -2.35% [at 42.5 µM]
[O-][n+]1ccccc1SSc1cccc[n+]1[O-] | active: 0.206 µM | –
Oc1c(Cl)cc(Cl)c2cccnc12 | inconclusive: 26.6 µM [cytotoxic] | –
CCN(CC)CCOc1ccc(/C(=C(\Cl)c2ccccc2)c2ccccc2)cc1 | inconclusive: 55.6 µM [cytotoxic, single point] | –
CC1CC(OC(=O)c2ccccc2O)CC(C)(C)C1 (stereo unspecified) | inconclusive: 67.9 µM [cytotoxic, single point] | –
NC(N)=NC(N)=NCCc1ccccc1 | inconclusive: 60.8 µM [cytotoxic, partial curve, poor fit] | –
CCCCCCCC/C=C\CCCCCCCC(=O)N(CCO)CCO | inconclusive: 68.3 µM [cytotoxic, single point] | –
O=C(OCC1CCC2OC2C1)C1CCC2OC2C1 (stereo unspecified) | inactive | –
S=C(NC1CCCCC1)NC1CCCCC1 | inconclusive: 10.9 µM [cytotoxic, full curve] | –
COC(=O)C1=C(C)NC(C)=C(C(=O)OC)C1c1ccccc1[N+](=O)[O-] | inconclusive: 61.2 µM [cytotoxic] | –
COc1ccc(CN2CCN(C(c3ccc(F)cc3)c3ccc(F)cc3)CC2)c(OC)c1OC | inconclusive: 26.6 µM [cytotoxic, partial curve] | –
CCCCCCCCn1sc(Cl)c(Cl)c1=O | active: 30.6 µM | –
CCCCCCCCCCCCCC[P+](CCCC)(CCCC)CCCC | active: 17.1 µM and active: 27.3 µM | –
CCCCCCCCCCCC(=O)NCCCN(C)C | inconclusive: 61.1 µM [cytotoxic, single point] | –
CC[C@]1(O)C[C@H]2CN(CCc3c([nH]c4ccccc34)[C@@](C(=O)OC)(c3cc4c(cc3OC)N(C=O)[C@H]3[C@@](O)(C(=O)OC)[C@H](OC(C)=O)[C@]5(CC)C=CCN6CC[C@]43[C@@H]65)C2)C1 | inconclusive: 0.422 µM [cytotoxic, full curve] | –
Cc1c2ccccc2c(C)c2c1ccc1ccccc12 | inconclusive: 48.1 µM [cytotoxic, partial curve, poor fit] | –

target: Nuclear receptor subfamily 1 group I member 3 (Homo sapiens) (UniProt Q14994); test: qHTS assay to identify small molecule antagonists of the constitutive androstane receptor (CAR) signaling pathway (AID 1224838); settings: HepG2-CYP2B6-hCAR luciferase, CITCO-stimulated, 24 h; series mostly up to 92.4 µM; activity, negative = inhibition: at the top concentration;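 also: HepG2 cells stably expressing hCAR with CYP2B6 luciferase reporter stimulated by CITCO; nearly all actives have a fitted effect of over 40% in size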; as to activity, negative = inhibition: % is scaled to controls: 0 for no effect and ±100 for the full control effect
UniProt Q14994, sequence (Q14994 whole entry, looked up): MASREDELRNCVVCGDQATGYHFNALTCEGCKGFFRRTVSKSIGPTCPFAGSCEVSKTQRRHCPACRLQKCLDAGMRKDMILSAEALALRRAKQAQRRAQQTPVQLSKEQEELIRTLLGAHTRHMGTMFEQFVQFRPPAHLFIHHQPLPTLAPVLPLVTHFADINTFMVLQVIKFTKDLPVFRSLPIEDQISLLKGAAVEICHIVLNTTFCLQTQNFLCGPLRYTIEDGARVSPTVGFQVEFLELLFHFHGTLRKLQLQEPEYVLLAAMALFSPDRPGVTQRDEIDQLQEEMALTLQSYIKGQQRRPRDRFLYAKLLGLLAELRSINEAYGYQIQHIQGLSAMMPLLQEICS
Summary of the method: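 Antagonist mode used CITCO at a final 50 nM to activate CAR in human hepatoma HepG2 cells carrying stable hCAR and a 2.2 kb CYP2B6 promoter-luciferase construct. Compounds were tested at 15 concentrations over 24 h, with luminescence as the end point.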

Structure (SMILES) | Potency
CCCCCCCCCCCCOC(=O)c1cc(O)c(O)c(O)c1 | active: 76.6 µM and inconclusive: 13.7 µM [inhibitor, full curve]
Oc1c(Cl)cc(Cl)c2cccnc12 | inconclusive: 33.5 µM [inhibitor, single point]
CC1CC(OC(=O)c2ccccc2O)CC(C)(C)C1 (stereo unspecified) | inconclusive: 67.9 µM [inhibitor, single point] and inactive
CCOC(=O)[C@H](CCc1ccccc1)N[C@@H](C)C(=O)N1Cc2ccccc2C[C@H]1C(=O)O | inactive
COc1ccc(CN2CCN(C(c3ccc(F)cc3)c3ccc(F)cc3)CC2)c(OC)c1OC | inconclusive: 33.5 µM [inhibitor, single point]
COc1cc([C@@H]2c3cc4c(cc3[C@@H](O[C@@H]3O[C@@H]5CO[C@@H](C)O[C@H]5[C@H](O)[C@H]3O)[C@H]3COC(=O)[C@H]23)OCO4)cc(OC)c1O | inconclusive: 4.28 µM [inhibitor, full curve]
CCCCCCCCCCCC(=O)NCCCN(C)C | inconclusive: 68.6 µM [inhibitor, single point]
CC[C@]1(O)C[C@H]2CN(CCc3c([nH]c4ccccc34)[C@@](C(=O)OC)(c3cc4c(cc3OC)N(C=O)[C@H]3[C@@](O)(C(=O)OC)[C@H](OC(C)=O)[C@]5(CC)C=CCN6CC[C@]43[C@@H]65)C2)C1 | active: 0.211 µM
Cc1cc(Cc2cc(C)cc(C(C)(C)C)c2O)c(O)c(C(C)(C)C)c1 | active: 19.4 µM and active: 43.3 µM
Cc1c2ccccc2c(C)c2c1ccc1ccccc12 | inconclusive: 77 µM [inhibitor, single point]

target: Nuclear receptor subfamily 1 group I member 3 (Homo sapiens) (UniProt Q14994); test: qHTS assay to identify small molecule agonists of the constitutive androstane receptor (CAR) signaling pathway (AID 1224839); settings: HepG2 hCAR CYP2B6-luciferase, agonist mode, 24 h; series mostly up to 92.4 µM; activation: at the top concentration; also: nearly all actives have a fitted effect of over 15% in size
Summary of the method: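 Readout: firefly luciferase luminescence via ONE-Glo. System: HepG2 double-stable for hCAR and CYP2B6-2.2kb. Conditions: 15-point compound titration, PK11195 at 0.75 uM final, 24 h incubation.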

Structure (SMILES) | Potency
C[C@]12CC[C@@H]3c4ccc(O)cc4CC[C@H]3[C@@H]1CC[C@@H]2OC(=O)CCC1CCCC1 | inconclusive: 26.6 µM [activator, partial curve]
CCc1cc(Cc2cc(CC)c(N)c(CC)c2)cc(CC)c1N | active: 4.86 µM
CN(C)c1cccc(O)c1 | inconclusive: 54.5 µM [activator, partial curve]
c1ccc(-c2ccc(C(c3ccccc3)n3ccnc3)cc2)cc1 (stereo unspecified) | inconclusive: 23.7 µM [activator]
S=C(NC1CCCCC1)NC1CCCCC1 | inconclusive: 67.3 µM [activator, partial curve, poor fit]
CCCCCCCCCCCCc1ccccc1O | active: 4.79 µM and active: 4.33 µM
Cc1c2ccccc2c(C)c2c1ccc1ccccc12 | active: 5.39 µM and active: 9.69 µM
